The other results are listed elsewhere or left out.
These compounds were tested on HSkMC (human skeletal muscle cells) (assay: cytotoxicity call (relative viability < 0.9)). Conditions: 10 µM.

SMILES | cytotoxicity call
CC(=O)OCC=C(C)CCC=C(C)CCC=C(C)CCC=C(C)CCC=C(C)CCC=C(C)CCC=C(C)CCC=C(C)CCC=C(C)C | inactive
NC1(C(=O)O)CCC1 | inactive
O=C(Nc1ccccc1)N1c2ccccc2CCc2ccccc21 | inactive
C[C@H](CO)N1C[C@H](C)[C@@H](CN(C)C)Oc2cc(C#C[C@@H](C)O)ccc2S1(=O)=O | inactive
COc1ccc(CN(C)C[C@H]2OCCCC[C@@H](C)Oc3ccc(NC(=O)Nc4ccc(OC)cc4)cc3C(=O)N([C@H](C)CO)C[C@H]2C)cc1 | inactive
CNC[C@@H]1Oc2ccc(NS(=O)(=O)c3cn(C)cn3)cc2CC(=O)N([C@@H](C)CO)C[C@H]1C | inactive
CO[C@H]1CN(C)C(=O)c2ccc(NC(=O)C3CC3)cc2OC[C@H](C)N(C(=O)C2CCOCC2)C[C@@H]1C | inactive
C[C@H](CO)N1C[C@H](C)[C@@H](CN(C)S(=O)(=O)c2ccc(Cl)cc2)Oc2ccc(NC(=O)Nc3cccc4ccccc34)cc2C1=O | inactive
Cc1noc(C)c1S(=O)(=O)N(C)C[C@H]1Oc2c(NC(=O)C3CC3)cccc2C(=O)N([C@H](C)CO)C[C@H]1C | inactive
COc1ccc(CNC(=O)C[C@@H]2CC[C@@H]3[C@@H](COc4ccc(NC(=O)C(C)C)cc4C(=O)N3C)O2)cc1 | inactive
C[C@@H]1CCCCO[C@H](CN(C)C(=O)Cc2ccccc2)[C@@H](C)CN([C@@H](C)CO)C(=O)c2cc(NC(=O)Nc3ccccc3)ccc2O1 | inactive
C[C@@H]1CN([C@@H](C)CO)S(=O)(=O)c2ccc(-c3cncnc3)cc2O[C@@H]1CN(C)C(=O)C1CCCCC1 | inactive
COc1ccc(-c2cnc3c(c2)C(=O)N([C@@H](C)CO)C[C@H](C)[C@H](CN(C)C(=O)C2CCOCC2)O3)cc1 | inactive
COc1cccc(-n2cc(C(=O)NO)nn2)c1 | inactive
O=C(Nc1ccn([C@H]2O[C@H](CO)[C@@H](O)[C@@H]2O)c(=O)n1)c1ccccc1 | inactive
C[C@@H]1CCCCO[C@@H](CN(C)Cc2ccc(Cl)c(Cl)c2)[C@@H](C)CN([C@H](C)CO)C(=O)c2cc(NC(=O)c3ccncc3)ccc2O1 | inactive
C[C@@H]1CN([C@H](C)CO)S(=O)(=O)c2ccc(C#CCC3CCCC3)cc2O[C@H]1CN(C)C(=O)CN(C)C | inactive
C[C@@H]1CCCCO[C@H](CN(C)S(=O)(=O)c2ccc(F)cc2)[C@@H](C)CN([C@H](C)CO)C(=O)c2cc(NC(=O)Nc3cccc4ccccc34)ccc2O1 | inactive
CCN1[C@@H]2c3ccc(-c4ccncc4)c(=O)n3C[C@@H]2[C@@H](CO)[C@@H]1C(=O)NCCc1cn(C)cn1 | inactive
COc1ccc(S(=O)(=O)Nc2ccc3c(c2)C(=O)N([C@@H](C)CO)C[C@H](C)[C@@H](CN(C)C(=O)Nc2ccccc2)OCCCC[C@H](C)O3)cc1 | inactive

SMILES | cytotoxicity call
C[C@@H]1CN([C@H](C)CO)C(=O)Cc2cc(NS(=O)(=O)c3cccs3)ccc2O[C@@H]1CN(C)S(=O)(=O)c1cccs1 | inactive
C[C@H]1CN([C@@H](C)CO)S(=O)(=O)c2ccc(C#Cc3cccc(F)c3)cc2O[C@@H]1CN(C)S(=O)(=O)c1cn(C)cn1 | inactive
C[C@H](NC(=O)c1c(N)nn2cccnc12)c1cc2cccc(C#Cc3cnn(C)c3)c2c(=O)n1-c1ccccc1 | active
C[C@@H]1CCCCO[C@@H](CN(C)Cc2ccc(C(=O)O)cc2)[C@H](C)CN([C@@H](C)CO)C(=O)c2cc(NC(=O)C3CCCCC3)ccc2O1 | inactive
Cc1nnsc1C(=O)NCC1(CO)CC1 | inactive
COc1ccc(NC(=O)N(C)C[C@@H]2OCc3cn(nn3)CCCC(=O)N([C@H](C)CO)C[C@H]2C)c(OC)c1 | inactive
CC(C)(C)c1ccc(OC[C@@H](O)CN)cc1 | inactive
COc1ccc(S(=O)(=O)N(C)C[C@H]2Oc3ccc(NC(=O)Cn4cnnn4)cc3CC(=O)N([C@H](C)CO)C[C@@H]2C)cc1 | inactive
CCC(=O)N(C)C[C@@H]1Oc2ncc(C#C[C@H](C)O)cc2C(=O)N([C@H](C)CO)C[C@@H]1C | inactive
CO[C@H]1CN(C)C(=O)c2ccc(NS(=O)(=O)c3cn(C)cn3)cc2OC[C@H](C)N(CCC(F)(F)F)C[C@@H]1C | inactive
CCOC(=O)CSc1nc(=O)cc(C)[nH]1 | inactive
COc1ccc(NC(=O)N(C)C[C@H]2Oc3ccc(NC(=O)Nc4cccc5ccccc45)cc3CC(=O)N([C@@H](C)CO)C[C@@H]2C)cc1 | inactive
C=C1C(c2ccc(C)cc2)=CCc2cc(C)cc(C)c21 | inactive
CC(=O)N=c1sc(S(N)(=O)=O)nn1C | inactive
COc1ccc(S(=O)(=O)Nc2ccc3c(c2)C(=O)N([C@H](C)CO)C[C@@H](C)[C@H](CN(C)C(=O)Nc2ccc(C(F)(F)F)cc2)OCCCC[C@H](C)O3)cc1 | inactive
O=C(Cc1ccncc1)NCC[C@@H]1CC[C@H](NC(=O)C2CCOCC2)[C@@H](CO)O1 | inactive
Cn1nc(O)c(=O)[nH]c1=S | inactive
CCS(=O)(=O)N1C[C@]2(CN(C2)C(=O)Nc2c(noc2C)C)c2c([nH]c3cc(ccc23)OC)[C@H]1CO | inactive
C[C@H](CO)N1C[C@H](C)[C@@H](CN(C)S(=O)(=O)c2ccccc2F)Oc2ncc(C#Cc3cccnc3)cc2C1=O | inactive
COc1ccc(NC(=O)Nc2ccc3c(c2)C(=O)N([C@@H](C)CO)C[C@@H](C)[C@@H](CN(C)Cc2ccccc2)OCCCC[C@H](C)O3)cc1 | inactive
